Several values for one entry are separate records, joined by “and”; a condition that tells them apart may be missing. Identical values can stand only once. Counter-ions that a name gives are not always drawn. ± gives the standard deviation of the averaged measurements. In all, about 2,000 compounds were measured (“relative cell viability vs DMSO, compound alone”: median about 1.1, lowest 2% from about 0.29 on). The list shows a part of the results.
tested on: TE10; assay: relative cell viability vs DMSO, compound alone (fraction); TE10 is an esophageal squamous carcinoma line; higher = less cytotoxic; conditions: 2 µM; 48 h
Procedure: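 TE10 ESCC cells (1,000/well, 384-well plates) were treated with Selleck bioactive library compounds at 2 uM alone for 48 h. Viability was read by CellTiter-Glo and expressed relative to DMSO wells. Two technical replicates (A, B).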

Point of comparison: `CN(C)C(=O)Nc1cccc(-c2ccc(N(C)C)cc2)c1` [Atglistatin], relative cell viability 0.871 ± 0.024. Against it:
- CN(C)CCc1c[nH]c2ccc(C[C@H]3COC(=O)N3)cc12 [Zolmitriptan] — higher, 1.03 ± 0.056
- O=C1c2cccc(O)c2C(=O)c2c(O)cc(CO)cc21 [Aloe-emodin] — higher, 1.13 ± 0.062
- CN(C)CCC=C1c2ccccc2C=Cc2ccccc21 [Cyclobenzaprine HCl] — higher, 1.12 ± 0.022
- COc1cc(/C=C/C(=O)O)ccc1O [Ferulic Acid] — within error, 0.993 ± 0.098
- C[N+]1(C)CCC(=C(c2ccccc2)c2ccccc2)CC1 [Diphemanil Methylsulfate] — within error, 0.918 ± 0.097
- NS(=O)(=O)c1cc2c(cc1Cl)NCNS2(=O)=O [Hydrochlorothiazide] — higher, 1.05 ± 0.059
- O=C1C(=O)N(Cc2ccc(Cl)c(Cl)c2)c2ccccc21 [Apoptosis Activator 2] — higher, 1.05 ± 0.0069
- O=C(NC1CCOCC1)c1ccc(-c2cc(-c3c[nH]nc3-c3ccccn3)ccn2)cc1 — higher, 1.21 ± 0.098
- O=c1[nH]c(=O)n([C@H]2C[C@H](O)[C@@H](CO)O2)cc1F [Floxuridine] — higher, 1.15 ± 0.077
- Cc1c(C(=O)Nc2ccc(Oc3ccnc4[nH]cc(-c5ccccc5)c34)c(F)c2)c(=O)n(-c2ccc(F)cc2)n1C — higher, 1 ± 0.027
- CN[C@@H](C)C(=O)N[C@H](C(=O)N1CCC[C@H]1c1nc(C(=O)c2ccc(F)cc2)cs1)C1CCCCC1 — higher, 0.954 ± 0.011
- COc1c(C)c(C(=O)c2ccc(N)c(C(=O)O)c2)n2ccccc12 — higher, 1.04 ± 0.041
- COc1ccc(-c2ccc3c(N4CCOC[C@@H]4C)nc(N4CCOC[C@@H]4C)nc3n2)cc1CO — lower, 0.4942 ± 0.0022
- CC(C)C[C@H](NP(=O)(O)O[C@@H]1O[C@@H](C)[C@H](O)[C@@H](O)[C@H]1O)C(=O)N[C@@H](Cc1c[nH]c2ccccc12)C(=O)O [Phosphoramidon Disodium Salt] — higher, 1.18 ± 0.053
- COc1ccc([C@@H]2CC(=O)c3c(O)cc(O)cc3O2)cc1O [Hesperetin] — higher, 1.1 ± 0.022
- Nc1c(CC(=O)O)cccc1C(=O)c1ccccc1 [Amfenac Sodium Monohydrate] — higher, 0.954 ± 0.034
- CC(C)(C)C(=O)Nc1ccc2c(c1)C(=O)C(=O)c1ccccc1-2 — lower, 0.0653 ± 0.0041
- CC(=O)Oc1ccccc1C(=O)Nc1ncc([N+](=O)[O-])s1 [Nitazoxanide] — higher, 0.992 ± 0.036
- NC(=O)c1ccc(N(C(N)=O)c2c(F)cccc2F)nc1-c1ccc(F)cc1F — higher, 1.05 ± 0.015
- CCCCCCCCCCCCCCCC(=O)OCC(O)C1OC(=O)C(O)=C1O [L-Ascorbyl 6-palmitate] — higher, 1.14 ± 0.031
- CCCc1cc(C)[nH]c(=O)c1CNC(=O)c1cc(-c2ccc(N3CCN(C(C)C)CC3)nc2)cc2c1cnn2C(C)C — higher, 1.13 ± 0.022
- CC(C)CC(N)=O [Isovaleramide] — higher, 1.1 ± 0.057
- CN1CCN(C2=Nc3ccccc3Oc3ccc(Cl)cc32)CC1 [Loxapine Succinate] — higher, 1.01 ± 0.026
- N=C(NCCCCCCNC(=N)NC(=N)Nc1ccc(Cl)cc1)NC(=N)Nc1ccc(Cl)cc1 [Chlorhexidine HCl] — higher, 1.08 ± 0.019
- COc1c2occc2cc2ccc(=O)oc12 [Methoxsalen] — higher, 0.9204 ± 0.0057
- CCOC(=O)[C@@H](N)Cc1ccc(-c2cc(O[C@H](c3ccc(Cl)cc3-n3ccc(C)n3)C(F)(F)F)nc(N)n2)cc1 [Telotristat Etiprate (LX 1606 Hippurate)] — higher, 1.037 ± 0.01
- O=C(Nc1cccc(Cl)c1)c1ccccn1 — higher, 1.11 ± 0.032
- N#Cc1ccc(C(c2ccc(C#N)cc2)n2cncn2)cc1 [Letrozole] — higher, 1.16 ± 0.013
- C[C@@]1(C(=O)Nc2ccc(F)nc2)CCCN1c1nc(Nc2cc(C3CC3)n[nH]2)c2cccn2n1 — lower, 0.665 ± 0.042
- Clc1ccc(CCC(Cn2ccnc2)Sc2c(Cl)cccc2Cl)cc1 (centres undefined) [Butoconazole nitrate] — within error, 0.8597 ± 0.0014
- Cc1cc2c(cc1CC(=O)c1sccc1S(=O)(=O)Nc1onc(C)c1Cl)OCO2 [Sitaxentan sodium] — higher, 1.06 ± 0.022
- O=C(NC[C@H]1CN(c2ccc(N3CCOCC3=O)cc2)C(=O)O1)c1ccc(Cl)s1 [Rivaroxaban] — higher, 1.04 ± 0.076
- C[C@@H]1C[C@H]2[C@@H]3C[C@H](F)C4=CC(=O)C=C[C@]4(C)[C@@]3(F)[C@@H](O)C[C@]2(C)[C@@]1(O)C(=O)CO [Flumethasone] — higher, 0.96 ± 0.012
- c1ccc(NCc2ccc(CNc3ccccn3)cc2)nc1 — higher, 1.085 ± 0.0086
- COC(=O)c1ccc2c(c1)nc(NC(=O)c1ccccc1)n2CCCc1ccccc1 — lower, 0.777 ± 0.0059
- Cc1nnc(C(=O)NC(C)(C)c2nc(C(=O)NCc3ccc(F)cc3)c(O)c(=O)n2C)o1 [Raltegravir (MK-0518)] — within error, 0.842 ± 0.12
- CN1CCC(=C2c3ccccc3C=Cc3ccccc32)CC1 [Cyproheptadine HCl] — within error, 0.958 ± 0.17
- N=C(N)NC(=N)NCCc1ccccc1 [Phenformin HCl] — higher, 0.9814 ± 0.0047
- CO[C@H]1/C=C/O[C@@]2(C)Oc3c(C)c(O)c4c(O)c(c(/C=N/N5CCN(C6CCCC6)CC5)c(O)c4c3C2=O)NC(=O)/C(C)=C\C=C\[C@H](C)[C@H](O)[C@@H](C)[C@@H](O)[C@@H](C)[C@H](OC(C)=O)[C@@H]1C [Rifapentine] — higher, 1.08 ± 0.022
- C[C@@H](Oc1ccc2[nH]nc(/C=C/c3cnn(CCO)c3)c2c1)c1c(Cl)cncc1Cl — lower, 0.712 ± 0.01
- CNC1CCCN(c2c(F)cc3c(=O)c(C(=O)O)cn(C4CC4)c3c2OC)C1 (centres undefined) [Balofloxacin] — higher, 1.08 ± 0.015
- CC[C@H]1[C@@H](O)[C@@H]2[C@H](CC[C@]3(C)[C@@H]([C@H](C)CCC(=O)O)CC[C@@H]23)[C@@]2(C)CC[C@@H](O)C[C@@H]12 [Obeticholic Acid] — higher, 1.022 ± 0.0042
- CCCc1cc(C(N)=S)ccn1 [Protionamide] — higher, 1.11 ± 0.028
- COc1cccc2c1c(O)c(C(=O)N(C)c1ccc(C(F)(F)F)cc1)c(=O)n2C [Tasquinimod] — higher, 1.036 ± 0.0025
- CC(=O)S[C@@H]1CC2=CC(=O)CC[C@]2(C)[C@H]2CC[C@@]3(C)[C@@H](CC[C@@]34CCC(=O)O4)[C@H]12 [Spironolactone] — within error, 1.02 ± 0.13
- C#Cc1cccc(Nc2ncnc3cc(OC)c(OCCCCCCC(=O)NO)cc23)c1 — lower, 0.502 ± 0.023
- O=C(O)[C@]1(Cc2cccc(Nc3nccs3)n2)CC[C@@H](Oc2cccc(Cl)c2F)CC1 — higher, 0.99 ± 0.085
- COc1cc2c(Nc3ccc(NC(=O)c4ccccc4)cc3)ncnc2cc1OCCCN1CCOCC1 — higher, 0.973 ± 0.043
- CC(=O)Nc1ccc(C(=O)Nc2ccccc2N)cc1 [CI994 (Tacedinaline)] — higher, 1 ± 0.017
- CC(C)(C)c1cnc(CSc2cnc(NC(=O)C3CCNCC3)s2)o1 — lower, 0.413 ± 0.028
- CCN[C@H]1CN(CCCOC)S(=O)(=O)c2sc(S(N)(=O)=O)cc21 [Brinzolamide] — within error, 0.905 ± 0.073
- CC(C)c1c(C(=O)Nc2ccccc2)c(-c2ccccc2)c(-c2ccc(F)cc2)n1CC[C@@H](O)C[C@@H](O)CC(=O)O [Atorvastatin Calcium] — higher, 1.119 ± 0.004
- COC(=O)Nc1nc2cc(C(=O)c3cccs3)ccc2[nH]1 [Nocodazole] — within error, 0.8892 ± 0.0028
- CC(=Cc1ccc(C(=O)O)cc1)c1ccc2c(c1)C(C)(C)CCC2(C)C [TTNPB (Arotinoid Acid)] — higher, 0.982 ± 0.074
- O=C(NC[C@H](O)CN1CCc2ccccc2C1)c1cc(NC2COC2)ncn1 — higher, 0.987 ± 0.067
- COc1cc2ncnc(Sc3nnc(C)s3)c2cc1OC — higher, 1.11 ± 0.035
- Cc1ccc(S(=O)(=O)c2ccc([N+](=O)[O-])o2)cc1 — lower, 0.286 ± 0.0092
- O=C1NC(=O)C(c2cnc3ccccn23)=C1c1cn2c3c(cc(F)cc13)CN(C(=O)N1CCCCC1)CC2 — higher, 1.019 ± 0.0032
- OC(Cn1cncn1)(Cn1cncn1)c1ccc(F)cc1F [Fluconazole] — higher, 1.19 ± 0.095
- NCCc1c[nH]cn1 [Histamine 2HCl] — higher, 1.09 ± 0.029
- C[C@@H](NCCCc1cccc(C(F)(F)F)c1)c1cccc2ccccc12 [Cinacalcet HCl] — within error, 0.874 ± 0.014
- CC(=O)Nc1cccc(-n2c(=O)n(C3CC3)c(=O)c3c(Nc4ccc(I)cc4F)n(C)c(=O)c(C)c32)c1 — lower, 0.577 ± 0.022
- Nc1[nH]cnc2ncnc1-2 [Adenine HCl] — higher, 1.15 ± 0.017
- CC(C(=O)O)c1cccc(Oc2ccccc2)c1 (centres undefined) [Fenoprofen calcium hydrate] — higher, 1.07 ± 0.065
- CC(C(=O)O)c1cccc(Oc2ccccc2)c1 (centres undefined) [Fenoprofen Calcium] — higher, 0.983 ± 0.026
- COCCOc1nc(-c2ccc(Cl)c(Cl)c2)n(-c2ccc(NC(=O)CCl)cc2)n1 [MI-2 (MALT1 inhibitor)] — within error, 0.808 ± 0.069
- CCCc1ncc(C[n+]2ccccc2C)c(N)n1 [Amprolium HCl] — higher, 1.107 ± 0.0088
- O=C1NC(=O)C(c2ccccc2[N+](=O)[O-])=C1Nc1ccc(O)c(Cl)c1 — higher, 1.11 ± 0.11
- O=C(O)C(Cc1ccccc1[N+](=O)[O-])=NNc1nc(-c2ccc(Cl)c(Cl)c2)cs1 — higher, 1.21 ± 0.024
- OC[C@@H](O)[C@@H](O)[C@H](O)[C@H](O)CO [D-Mannitol] — higher, 1.11 ± 0.013
- C[C@H](NCc1ccc(OCc2cccc(F)c2)cc1)C(N)=O [Safinamide Mesylate] — higher, 1.22 ± 0.038
- CC(=O)OCC(=O)NCCCOc1cccc(CN2CCCCC2)c1 [Roxatidine Acetate HCl] — higher, 1.1 ± 0.052
- CCn1cc(C(=O)O)c(=O)c2cc(F)c(N3CCNCC3)nc21 [Enoxacin] — higher, 0.925 ± 0.026
- CNc1ncnc2c1ncn2[C@@H]1O[C@H](CO)[C@@H](O)[C@H]1O [N6-methyladenosine (m6A)] — higher, 0.9679 ± 0.0062
- CC(C)OC(=O)C(C(=O)OC(C)C)=C1SC=CS1 [Malotilate] — higher, 1.077 ± 0.009
- c1ccc2c(c1)CCCC2C1=NCCN1 (centres undefined) [Tetrahydrozoline HCl] — higher, 1.1 ± 0.066
- C=C(C)[C@@H]1CC[C@]2(C(=O)O)CC[C@]3(C)[C@H](CC[C@@H]4[C@@]5(C)CC[C@H](O)C(C)(C)[C@@H]5CC[C@]43C)[C@@H]12 [Betulinic acid] — within error, 0.993 ± 0.17

For `COc1cc(Br)c(Nc2nc(-c3c(C)nc4ncccn34)cs2)c(Br)c1`, the relative cell viability was 0.723 and 0.735.

Reference: the supplement of paper PMC10670038
